Measured values as given in the supplement of paper PMC4466236.
The full ranking holds about 33,000 sequences; the median of “E-score (dimensionless, -0.5 to 0.5)” is about -0.058, and the highest 2% start at about 0.35. This is one part of the list.

Test system: MvaT
Experiment: PBM 8-mer E-score (mean of HK and ME arrays) (E-score (dimensionless, -0.5 to 0.5)); higher = stronger relative binding preference; most listed sequences are background and not binding sites
Method in brief: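 Reported values are rank-based E-scores, taken as the mean of two universal arrays and parsed with a custom script. Each 8-mer score falls between -0.5 and 0.5. The arrays, ME and HK, were double-stranded 60-mers with a constant 25-mer primer region and a variable 35-mer region covering all 8-mers. They were probed, by an earlier protocol, with full-length P. aeruginosa MvaT carrying an N-terminal glutathione S-transferase fusion.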

| Sequence | PBM 8-mer E-score |
| --- | --- |
| GCCTTGTA | -0.0498 |
| CTATCGCA | -0.108 |
| CTGTGCTA | -0.0139 |
| AAACTCAC | -0.00989 |
| ACGACTGC | -0.218 |
| GAGCCACA | -0.197 |
| ATAGATTG | 0.152 |
| CGCCAAAG | -0.0963 |
| AAAACTTT | 0.354 |
| AACGGCCA | -0.132 |
| CACTGGTC | -0.315 |
| AAATGACC | 0.0232 |
| GCAACGCC | -0.119 |
| ATATTAAG | 0.446 |
| AGTTGCTC | -0.0921 |
| CGGTTACC | -0.182 |
| GCGTCAAA | 0.1 |
| ACACGCGT | -0.0867 |
| AGTAGCGG | 0.0183 |
| GAATGCCA | -0.0324 |
| CGAAACGC | -0.141 |
| GGCGGGGA | -0.214 |
| CCGATCTA | -0.0527 |
| ACAGTGGT | -0.197 |
| GGCCTAAA | -0.0526 |

| Sequence | PBM 8-mer E-score |
| --- | --- |
| ACAGACAG | -0.0282 |
| ACCAGTGG | -0.28 |
| ACTGTCGA | -0.00521 |
| GACGTCGA | -0.171 |
| ATCCTTTC | -0.0118 |
| ATCCGAGA | -0.129 |
| CACGACCA | -0.0689 |
| CTACCTGC | -0.133 |
| AGGTATAG | -0.0523 |
| GCGTAGGA | -0.114 |
| CTGAACAC | -0.0824 |
| AGCCATCC | -0.271 |
| AGGCCGTC | -0.175 |
| CGCCCAGC | -0.0815 |
| GAGTACCC | -0.09 |
| AGCTGGGA | -0.127 |
| CACAGCCA | -0.0351 |
| GTTGCGCA | 0.0265 |
| GTGTCCGA | -0.0935 |
| AAGACCTT | -0.0303 |
| ATTCCGTC | 0.0057 |
| TGTCCAAA | 0.146 |
| AAGCCTAC | -0.0147 |
| AGGAGGAT | -0.0948 |
| CACCGGGC | -0.18 |

| Sequence | PBM 8-mer E-score |
| --- | --- |
| GGGGGTGA | -0.241 |
| AACCCACT | 0.0661 |
| CTTGGAAA | 0.0486 |
| CCCGCTTC | -0.157 |
| GTTAAAAA | 0.239 |
| ATCAATTC | 0.118 |
| ACCAGCCT | -0.109 |
| GCTTGTCC | -0.263 |
| CCAGCGAG | -0.0692 |
| AGCCGGAG | -0.323 |
| AGGATCGA | -0.146 |
| ACAGGCAT | -0.0589 |
| GTATACAC | 0.209 |
| CCTGAACC | -0.262 |
| GAAGGCAC | -0.218 |
| GGCAGCCC | -0.221 |
| CCATGTCA | -0.0804 |
| CCTTGGAC | -0.191 |
| CTTAGTGC | 0.0457 |
| GGGGACAC | -0.236 |
| AGCAAGCG | -0.17 |
| ACTGCGCA | -0.143 |
| AATTACTG | 0.21 |
| ACCCCATC | -0.245 |
| CATGGACC | -0.143 |

| Sequence | PBM 8-mer E-score |
| --- | --- |
| ACAGTTGA | 0.12 |
| AGGTAAAG | 0.0227 |
| ATCAGTAG | -0.0219 |
| ATCCGACC | -0.349 |
| AGTTTATA | 0.424 |
| CCCATAAC | 0.15 |
| AGCTTCCG | -0.0952 |
| CCATGTCG | -0.0897 |
| CGAATTAA | 0.308 |
| AAACGTGC | -0.00068 |
| ATGGCGTC | -0.163 |
| ACTTGCGA | 0.0311 |
| AAGTATAT | 0.399 |
| ACAAGCCC | -0.183 |
| CCGGACCA | -0.184 |
| AGCACTGA | 0.0144 |
| ACGTTATC | 0.0431 |
| GCCACCGA | -0.115 |
| AGACCGAC | -0.00362 |
| AACAGCCT | -0.188 |
| ATCCTGAC | -0.088 |
| CGAAATCC | -0.146 |
| TGGAGTAA | 0.117 |
| CCCAGGGA | -0.269 |
| TCTTGCAA | 0.186 |

| Sequence | PBM 8-mer E-score |
| --- | --- |
| ATATTTTA | 0.43 |
| CGAGTATA | 0.195 |
| ACATATGC | 0.129 |
| CGCTAACA | 0.0344 |
| GCAGACAA | 0.114 |
| AGCACGCC | -0.183 |
| AGGAGGTA | -0.25 |
| CAGACTTC | -0.134 |
| AGACCCAC | -0.154 |
| ATTTTAGA | 0.222 |
| GGTCCAAA | -0.0732 |
| GGCCCGAA | -0.208 |
| ATGGGTTA | 0.183 |
| CCGCTTCA | 0.0258 |
| AGAGAGAT | -0.0126 |
| AAAGCCAA | -0.0485 |
| CCTGTAAA | 0.00252 |
| CCCTGAAA | -0.167 |
| AGATATGG | 0.00259 |
| GATCGGGC | -0.199 |
| ACTTTTAA | 0.383 |
| CCACGAGC | -0.173 |
| AGTTTCCC | 0.0554 |
| CGCGAAGA | -0.176 |
| ACTGCGGA | -0.185 |

| Sequence | PBM 8-mer E-score |
| --- | --- |
| ACCGCGCT | -0.128 |
| ACTCTCGC | -0.13 |
| AGGAACGA | -0.198 |
| CCGACTGC | -0.238 |
| ACTCAGCT | -0.00439 |
| ATCTGCAA | 0.0545 |
| AATATAAA | 0.451 |
| AGTCTAGC | -0.158 |
| GACATCCC | -0.116 |
| ATATTACA | 0.386 |
| CTTGGTAA | -0.00388 |
| CGGTTGGC | -0.185 |
| GGCAGAAC | -0.0602 |
| GAATCGTC | -0.0999 |
| CTCAACAA | 0.0252 |
| ATTCGAGG | 0.0115 |
| CCAGAGGG | -0.247 |
| ATCTTTGG | 0.0301 |
| GATCCTAA | -0.0755 |
| CGTACCAG | -0.207 |
| AGCCGTCA | -0.216 |
| TTGGACAA | 0.138 |
| ATGTACAT | 0.337 |
| AGATCGTA | 0.0727 |
| ATGGTAAT | 0.239 |

| Sequence | PBM 8-mer E-score |
| --- | --- |
| AACCATGG | -0.0807 |
| AGCCACGG | -0.272 |
| CTAGGTGA | -0.0745 |
| ACGCACGC | -0.16 |
| CGTAGCCA | -0.209 |
| CAGTGCAG | -0.204 |
| ACTGAAGG | -0.209 |
| AAACCTGA | 0.0327 |
| GCGCTTGA | -0.14 |
| GCTTAAGC | -0.025 |
| CTCGGATA | -0.00375 |
| CGTCAAGA | -0.19 |
| TAGACCTA | -0.0203 |
| CTTCTTTC | 0.015 |
| GCGCGAGA | -0.134 |
| ATGGGGTC | -0.107 |
| TGAGGTAA | 0.0834 |
| CGTAAACC | -0.0508 |
| ATGATCAT | 0.123 |
| CGAGGGCC | -0.295 |
| AAAGGAGG | -0.167 |
| CAATAATC | 0.19 |
